# This is one part of the list.
# B1: PhoQ; a variant is named by its letters at X, in order, P23837 (parent)
# chain: MKKLLRLFFPLSLRVRFLLATAAVVLVLSLAYGMVALIGYSVSFDKTTFRLLRGESNLFYTLAKWENNKLHVELPENIDKQSPTMTLIYDENGQLLWAQRDVPWLMKMIQPDWLKSNGFHEIEADVNDTSLLLSGDHSIQQQLQEVREDDDDAEMTHSVAVNVYPATSRMPKLTIVVVDTIPVELKSSYMVWSWFIYVLSANLLLVIPLLWVAAWWSLRPIEALAKEVRELEEHNRELLNPATTRELTSLVRNLNRLLKSERERYDKYRTTLTDLTHSLKTPLXXLQXXLRSLRSEKMSVSDAEPVMLEQISRISQQIGYYLHRASMRGGTLLSRELHPVAPLLDNLTSALNKVYQRKGVNISLDISPEISFVGEQNDFVEVMGNVLDNACKYCLEFVEISARQTDEHLYIVVEDDGPGIPLSKREVIFDRGQRVDTLRPGQGVGLAVAREITEQYEGKIVAGESMLGGARMEVIFGRQHSAPKDE
# Variants of: B1
# Test: enrichment ratio after two sorts for PhoP signalling (ratio (wild type AVST 3.29)); higher = more functional
# Settings: with PhoP (E. coli)
row,Variant,enrichment ratio
1,LVYQ,0.888
2,PRIA,≤ 0.25
3,FLEK,≤ 0.25
4,FTYI,≤ 0.25
5,ELIM,≤ 0.25
6,YDVL,≤ 0.25
7,WWPN,≤ 0.25
8,ETDY,≤ 0.25
9,PCSM,≤ 0.25
10,VMHY,≤ 0.25
11,AFMW,≤ 0.25
12,VYLR,≤ 0.25
13,KLEN,≤ 0.25
14,LQDI,≤ 0.25
15,VRLS,≤ 0.25
16,LSDK,≤ 0.25
17,VMSY,≤ 0.25
18,YTRF,≤ 0.25
19,MRNM,≤ 0.25
20,LIAD,≤ 0.25
21,EKMS,≤ 0.25
22,IYQP,≤ 0.25
23,SPKK,≤ 0.25
24,QHCP,≤ 0.25
25,QTGK,≤ 0.25
26,FIMS,≤ 0.25

row,Variant,enrichment ratio
1,HRKD,≤ 0.25
2,FGYI,≤ 0.25
3,IMLV,≤ 0.25
4,LCMA,≤ 0.25
5,KGTV,≤ 0.25
6,HNAE,≤ 0.25
7,LYNP,≤ 0.25
8,HWDS,≤ 0.25
9,WYIQ,≤ 0.25
10,MPKI,≤ 0.25
11,IDQD,≤ 0.25
12,YNIC,≤ 0.25
13,DWFW,≤ 0.25
14,ETRC,≤ 0.25
15,PGGL,≤ 0.25
16,IMPQ,≤ 0.25
17,IGGW,≤ 0.25
18,TTNV,7.65
19,YMCE,≤ 0.25
20,PLMY,≤ 0.25
21,LYDS,≤ 0.25
22,KLKN,≤ 0.25
23,FVNC,≤ 0.25
24,MNFQ,4.7
25,WMKD,≤ 0.25
26,DVHY,≤ 0.25

row,Variant,enrichment ratio
1,QGQY,≤ 0.25
2,VYYM,≤ 0.25
3,PKMT,≤ 0.25
4,INCM,1.22
5,KFTY,≤ 0.25
6,WDWP,≤ 0.25
7,TYCM,0.414
8,QFLM,≤ 0.25
9,YKGG,≤ 0.25
10,YMTH,≤ 0.25
11,TALQ,15.2
12,FMFQ,≤ 0.25
13,EGIS,≤ 0.25
14,RMPV,≤ 0.25
15,SRYG,≤ 0.25
16,RPAN,≤ 0.25
17,FCYD,≤ 0.25
18,HPHW,≤ 0.25
19,YAYA,≤ 0.25
20,MMTY,≤ 0.25
21,NWQL,≤ 0.25
22,IGCD,≤ 0.25
23,MQCV,4.03
24,MTQD,≤ 0.25

# From a collection of fitness landscapes (doi:10.1126/science.1257360)
